Laboratory results from patent US11306124B2, “Agonist agents of CD47 inducing programmed cell death and their use in the treatments of diseases associated with defects in programmed cell death” (SORBONNE UNIVERSITE, priority 2016, dated 2022).
Several values for one entry are separate records, joined by “and”; a condition that tells them apart may be missing. Identical values can stand only once. Entries after “also recorded” stand apart in the source; their conditions may differ. Like-named read-outs stand apart in the source and are kept apart here. Part of at least one peptide drawing is inferred or uncertain, most often the ends. For at least one compound, name, drawing or mass did not settle the structure. Some compounds share one wording; it may come from a single statement. Residues, ends and D or L forms follow the SMILES beside them.

What was measured:
HCT-116 cells = format: cell-based, human; conditions: 2 h
Description: 2.2.2. Cell Death Analysis by Flow Cytometry
To detect possible apoptotic processes, cells were seeded in 35 mm dishes and cultured in media containing each tested cyclic peptide for 2 hours following procedure A or B.
Procedure B: Peptides were incubated for 2 hours on HCT-116 cells. Superkiller Trail (ALX-201-115C-010) was used as a positive pro-apoptotic control. Cells were analyzed by cytofluorometry using FITC Annexin V apoptosis detection kit with 7-AAD from BIOLEGEND (BLE640922).

[1] = test system: MCF-7, HCT-116, BxPC3 and A549 cancer cells; test: Cell viability and proliferation of tumor cells (cytotoxic assay and direct cell counting); format: cell-based, human; conditions: for viability in all cell strains: 2 hours, 10 to 50 μM peptide concentration; for efficiency in inducing cell death on cancer cell lines: MCF-7, HCT-116, BxPC3, A549
Description: The effects of several cyclic peptides of the invention on the proliferation of tumor cells were evaluated on 5 cell lines (MCF-7, human breast cancer cells; HCT-116, human colon cancer cells; BxPC3, human pancreas cancer cells and A549, human lung cancer cells) by cytotoxic assay and by counting directly the number of cells.
Those cyclic peptides were dissolved in DMSO at the following concentrations: 0, 5, 10, 25, 50 and 100 μM.
Culture media used for these assays are: EMEM=10% SVF for MCF-7 and Wi38; RPMI […] SVF for HCT-116 and BxPC3 and F-12K=10% SVF for A549.
500 cells were seeded in 96-well plates, incubated at 37° C. for 24 hours, and treated by the cyclic peptides at the different concentrations and controls for 2 h.

[2] = peptide concentration 12.5 (μM)

| Structure (SMILES) | Early Apoptosis, Mean (%) (HCT-116 cells; peptide concentration 25 (μM)) | Early Apoptosis, Mean (%) (HCT-116 cells; peptide concentration 50 (μM)) | cell viability ([1]; 25 μM, 2 hours of incubation (FIG. 7F)) | viability in all cell strains [1] | efficiency in inducing cell death on cancer cell lines [1] | Early Apoptosis, Mean (%) (HCT-116 cells; [2]) | Late apoptosis, Mean (%) (HCT-116 cells; [2]) | Late apoptosis, Mean (%) (HCT-116 cells; peptide concentration 25 (μM)) | Late apoptosis, Mean (%) (HCT-116 cells; peptide concentration 50 (μM)) | Apoptosis (one value for late and early apoptosis), Mean (%) (HCT-116 cells; peptide concentration 12.5) | Apoptosis (one value for late and early apoptosis), Mean (%) (HCT-116 cells; peptide concentration 25) | Apoptosis (one value for late and early apoptosis), Mean (%) (HCT-116 cells; peptide concentration 50) |
| --- | --- | --- | --- | --- | --- | --- | --- | --- | --- | --- | --- | --- |
| CC(C)C[C@@H]1NC(=O)[C@@H]2CCCN2C(=O)[C@H]2CCCN2C(=O)[C@H](Cc2c[nH]c3ccccc23)NC(=O)[C@H](CCCCN)NC(=O)[C@H](C(C)C)NC(=O)[C@H](C(C)C)NC(=O)[C@H](Cc2ccc(O)cc2)NC(=O)[C@H](Cc2ccccc2)NC(=O)[C@H](C(C)C)NC(=O)[C@H](C(C)C)NC(=O)[C@H](CCCCN)NC(=O)[C@H](C(C)C)NC(=O)[C@H](CO)NC1=O [PKD10, —F—Y—V—V—K—W—p—P—L—S—V—K—V—V—] (HELM PEPTIDE1{L.S.V.K.V.V.F.Y.V.V.K.W.[dP].P}$PEPTIDE1,PEPTIDE1,1:R1-14:R2$$$V2.0) | 43.67% and 59.50% and 45.90% | 32.70% and 28.42% and 50.77% | very significant decrease | dose-dependent viability decrease | ability to induce programmed Cell death; also recorded: efficient in inducing cell death |  |  |  |  |  |  |  |
| CSCC[C@@H]1NC(=O)[C@H](C(C)C)NC(=O)[C@H](C(C)C)NC(=O)[C@H](Cc2ccc(O)cc2)NC(=O)[C@H](Cc2ccccc2)NC(=O)[C@H](CCCNC(=N)N)N(C)C(=O)[C@H](CO)NC(=O)[C@H](CO)NC(=O)[C@H](CC(N)=O)NC(=O)[C@H](C(C)C)NC(=O)[C@H](C(C)C)NC(=O)[C@H](CCCCN)NC(=O)[C@H](C(C)C)NC(=O)[C@H](CO)NC(=O)[C@H](CC(C)C)NC(=O)CNC(=O)[C@H](CO)NC(=O)[C@@H]2CCCN2C(=O)[C@H]2CCCN2C(=O)[C@H](CCC(N)=O)NC(=O)[C@H](CCCCN)NC(=O)[C@H](Cc2c[nH]c3ccccc23)NC1=O (relative stereo) [PKTD11RNMe, —S—R*—F—Y—V—V—M—W—K—Q—p—P—S—G—L—S—V—K—V—V—N—S— R* = RNMe] | 9.39% | 23.06% |  | dose-dependent viability decrease | efficient in inducing cell death | 7.80 | 3.17 | 3.99 | 9.58 |  |  |  |
| CSCC[C@@H]1NC(=O)[C@@H](C(C)C)NC(=O)[C@H](C(C)C)NC(=O)[C@H](Cc2ccc(O)cc2)NC(=O)[C@H](Cc2ccccc2)NC(=O)[C@H](CCCNC(=N)N)NC(=O)[C@H](CO)NC(=O)CNC(=O)[C@H](CC(N)=O)NC(=O)[C@H](C(C)C)NC(=O)[C@H](C(C)C)NC(=O)[C@H](CCCCN)NC(=O)[C@H](C(C)C)NC(=O)[C@H](CO)NC(=O)[C@H](CC(C)C)NC(=O)CNC(=O)[C@@H]2CCCN2C(=O)[C@H]2CCCN2C(=O)[C@H](CCCCN)NC(=O)[C@H](Cc2c[nH]c3ccccc23)NC1=O [PKTD18, —S—R—F—Y—V—V—M—W—K—p—P—G—L—S—V—K—V—V—N—G—] (HELM PEPTIDE1{S.R.F.Y.V.[dV].M.W.K.[dP].P.G.L.S.V.K.V.V.N.G}$PEPTIDE1,PEPTIDE1,1:R1-20:R2$$$V2.0) | 15.95% | 22.48% |  | dose-dependent viability decrease | efficient in inducing cell death | 12.14 | 5.21 | 8.59 | 9.60 |  |  |  |
| CCCC[C@@H]1NC(=O)[C@@H](C(C)C)NC(=O)[C@H](C(C)C)NC(=O)[C@H](Cc2ccc(O)cc2)NC(=O)[C@H](Cc2ccccc2)NC(=O)[C@H](CCCNC(=N)N)N(C)C(=O)[C@H](CO)NC(=O)[C@H](CO)NC(=O)[C@H](CC(N)=O)NC(=O)[C@H](C(C)C)NC(=O)[C@H](C(C)C)NC(=O)[C@H](CCCCN)NC(=O)[C@H](C(C)C)NC(=O)[C@H](CO)NC(=O)[C@H](CC(C)C)NC(=O)CNC(=O)[C@@H]2CCCN2C(=O)[C@H]2CCCN2C(=O)[C@H](CCCCN)NC(=O)[C@H](Cc2c[nH]c3ccccc23)NC1=O (relative stereo) [PKTD10-X-RNMe, —S—R*—F—Y—V—V—X—W—K—p—P—G—L—S—V—K—V—V—N—S— R* = RNMe and X = NLe] | 17.66% | 30.86% |  | dose-dependent viability decrease | efficient in inducing cell death | 11.92 | 5.15 | 6.96 | 20.43 |  |  |  |
| CSCC[C@@H]1NC(=O)[C@H](C(C)C)NC(=O)[C@H](C(C)C)NC(=O)[C@H](Cc2ccc(O)cc2)NC(=O)[C@H](Cc2ccccc2)NC(=O)[C@H](CCCNC(=N)N)NC(=O)[C@H](CO)NC(=O)[C@H](CO)NC(=O)[C@H](CC(N)=O)NC(=O)[C@H](C(C)C)NC(=O)[C@H](C(C)C)NC(=O)[C@H](CCCCN)NC(=O)[C@H](C(C)C)NC(=O)[C@H](CO)NC(=O)[C@H](CC(C)C)NC(=O)CNC(=O)[C@@H]2CCCN2C(=O)[C@H]2CCCN2C(=O)[C@H](CCCCN)NC(=O)[C@H](Cc2c[nH]c3ccccc23)NC1=O [PKTD10, —S—R—F—Y—V—V—M—W—K—p—P—G—L—S—V—K—V—V—N—S—] (HELM PEPTIDE1{G.L.S.V.K.V.V.N.S.S.R.F.Y.V.V.M.W.K.[dP].P}$PEPTIDE1,PEPTIDE1,1:R1-20:R2$$$V2.0) |  |  |  | dose-dependent viability decrease | efficient in inducing cell death |  |  |  |  |  |  |  |
| CSCC[C@@H]1NC(=O)[C@H](C(C)C)NC(=O)[C@H](C(C)C)NC(=O)[C@H](Cc2ccc(O)cc2)NC(=O)[C@H](Cc2ccccc2)NC(=O)[C@H](C(C)C)NC(=O)[C@H](C(C)C)NC(=O)[C@H](CCCCN)NC(=O)[C@H](C(C)C)NC(=O)[C@H](CO)NC(=O)[C@H](CC(C)C)NC(=O)[C@@H]2CCCN2C(=O)[C@H]2CCCN2C(=O)[C@H](Cc2c[nH]c3ccccc23)NC1=O [PKD8, —F—Y—V—V—M—W—p—P—L—S—V—K—V—V—] (HELM PEPTIDE1{L.S.V.K.V.V.F.Y.V.V.M.W.[dP].P}$PEPTIDE1,PEPTIDE1,1:R1-14:R2$$$V2.0) |  |  |  |  | ability to induce programmed Cell death; also recorded: efficient in inducing cell death |  |  |  |  |  |  |  |
| CSCC[C@@H]1NC(=O)[C@@H](C(C)C)NC(=O)[C@H](C(C)C)NC(=O)[C@H](Cc2ccc(O)cc2)NC(=O)[C@H](Cc2ccccc2)NC(=O)[C@H](CCCNC(=N)N)N(C)C(=O)[C@H](CO)NC(=O)[C@H](CO)NC(=O)[C@H](CC(N)=O)NC(=O)[C@H](C(C)C)NC(=O)[C@H](C(C)C)NC(=O)[C@H](CCCCN)NC(=O)[C@H](C(C)C)NC(=O)[C@H](CO)NC(=O)[C@H](CC(C)C)NC(=O)CNC(=O)[C@@H]2CCCN2C(=O)[C@H]2CCCN2C(=O)[C@H](CCCCN)NC(=O)[C@H](Cc2c[nH]c3ccccc23)NC1=O (relative stereo) [PKTD10-RNMe, —S—R*—F—Y—V—V—M—W—K—p—P—G—L—S—V—K—V—V—N—S— R* = RNMe] | 6.04% | 14.95% |  | dose-dependent viability decrease |  | 5.97 | 2.17 | 2.77 | 8.10 |  |  |  |
| CC(C)C[C@@H]1NC(=O)[C@@H]2CCCN2C(=O)[C@H]2CCCN2C(=O)[C@H](Cc2c[nH]c3ccccc23)NC(=O)[C@H](CCCCN)NC(=O)[C@H](C(C)C)NC(=O)[C@H](C(C)C)NC(=O)[C@H](Cc2ccccc2)NC(=O)[C@H](Cc2ccccc2)NC(=O)[C@H](C(C)C)NC(=O)[C@H](C(C)C)NC(=O)[C@H](CCCCN)NC(=O)[C@H](C(C)C)NC(=O)[C@H](CO)NC1=O [PKD10-FF, —F—F—V—V—K—W—p—P—L—S—V—K—V—V—] (HELM PEPTIDE1{F.F.V.V.K.W.[dP].P.L.S.V.K.V.V}$PEPTIDE1,PEPTIDE1,1:R1-14:R2$$$V2.0) |  |  |  | dose-dependent viability decrease | ability to induce programmed Cell death |  |  |  |  | 74.66 | 69.29 | 67.35 |
| CC[C@H](C)[C@@H]1NC(=O)CNC(=O)[C@@H]2CCCN2C(=O)[C@H]2CCCN2C(=O)[C@H](CCCCN)NC(=O)[C@H](Cc2c[nH]c3ccccc23)NC(=O)[C@H](CCSC)NC(=O)[C@H](C(C)C)NC(=O)[C@H](C(C)C)NC(=O)[C@H](Cc2ccc(O)cc2)NC(=O)[C@H](Cc2ccccc2)NC(=O)[C@H](CCCNC(=N)N)NC(=O)[C@H](CO)NC(=O)[C@H](CO)NC(=O)[C@H](CCCCN)NC(=O)[C@H](C(C)C)NC(=O)[C@H](C(C)C)NC(=O)[C@H](CCCCN)NC(=O)[C@H](C(C)C)NC(=O)[C@H](CO)NC1=O [PKTD1, —S—R—F—Y—V—V—M—W—K—p—P—G—I—S—V—K—V—V—K—S—] (HELM PEPTIDE1{G.I.S.V.K.V.V.K.S.S.R.F.Y.V.V.M.W.K.[dP].P}$PEPTIDE1,PEPTIDE1,1:R1-20:R2$$$V2.0) | 17.24% | 24.68% |  | dose-dependent viability decrease | efficient in inducing cell death | 11.42 | 11.60 | 18.77 | 36.99 |  |  |  |
